Assay results from PubChem BioAssay AID686979 (National Center for Advancing Translational Sciences (NCATS), 2013).
Out of some 420,000 compounds screened, about 50,000 (12%) were called active. Inconclusive means that the source gave no clear call. Such entries were picked first, then a sample of the others. Calls follow the shape of the dose curve; as a rule, active = well fitted inhibition curve with a large enough effect; inconclusive = small, poorly fitted or top-dose-only effect; inactive = flat fitted curve, though single readings scatter. Potencies of inconclusive entries are left out as doubtful fits.

Experiment: qHTS for Inhibitors of human tyrosyl-DNA phosphodiesterase 1 (TDP1): qHTS in cells in presence of CPT; also: nearly all actives have a fitted effect of over 55% in size
Conditions: chicken DT40 Tdp1-/-;hTDP1 cells + 20 nM CPT, ATP luminescence, 48 h; activity change, negative = growth inhibition: at 46.2 µM (top of the series) unless noted
Procedure, shortened: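 Cell growth measured by CellTiter-Glo luminescence after a minimum 48 h, 37 C compound exposure with 20 nM CPT in Tdp1-knockout DT40 cells stably expressing hTDP1, seeded 400/well; qHTS titration format.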
% is scaled to controls: 0 for no effect and ±100 for the full control effect; potency is read from the fitted curve at half-maximal effect; tags tell the direction and shape of the fitted curve.

Row | Structure (SMILES) | Potency | activity change, negative = growth inhibition
1 | Cc1ccc(-n2ncc3c(N4CCCCC4)ncnc32)cc1 | inconclusive [inhibitor, single point] | 
2 | COc1cc2c(NC3CCN(C)CC3)nc(N3CCCN(C)CC3)nc2cc1OCCCCC(N)=O | inactive | 
3 | Cc1ccc(-c2nc3ccccc3[nH]2)cc1NC(=O)c1sc2ccccc2c1Cl | inconclusive [inhibitor, single point] | 
4 | c1ccc(N2CCCCC2)c(Nc2nc3ccccc3n3cnnc23)c1 | inconclusive [inhibitor, single point] | 
5 | CCN1CCCC1CNC(=O)c1ccc2c(c1)NC(=O)/C(=C\c1ccc(OC)c(OC)c1)S2 (stereo not drawn) | inconclusive [inhibitor, single point] | 
6 | CN(C)CCCNS(=O)(=O)c1ccc(N2CCN(Cc3ccc4c(c3)OCO4)CC2)c([N+](=O)[O-])c1 | active: 23.1 µM | 
7 | CCN(CC)C(=O)c1sc(NC(=S)N2CCN(C(=O)C3CCCO3)CC2)c(C(=O)OC)c1C (stereo not drawn) | inconclusive [inhibitor, single point] | 
8 | CCOc1ccccc1NC(=O)Cn1c(=O)n(Cc2ccccc2)c(=O)c2c3c(sc21)CN(C(C)=O)CC3 | inconclusive [inhibitor, single point] | 
9 | Cc1ccc(C)n1-c1ccc(N(C)C)cc1 | inconclusive [inhibitor, partial curve, poor fit] | 
10 | COc1ccc(Cl)cc1NC(=O)c1sc2nc3c(cc2c1N)CN(C)CC3 | active: 23.1 µM | 
11 | c1nc(C2CCCCC2)cc2cc3c(cc12)OCO3 | inconclusive [inhibitor, single point] | 
12 | CCOC(=O)C1=C(C)Nc2sc(C(=O)c3ccc(C)cc3)c(N)c2C1c1ccc(C(=O)OC)cc1 (stereo not drawn) | inconclusive [inhibitor, single point] | 
13 | CCOc1ncccc1C(=O)N1CCN(C(=O)c2ccccc2)CC1 | inactive | 
14 | COc1ccc(Nc2ccc(S(=O)(=O)N3CCCCC3)cc2[N+](=O)[O-])cc1OC | inconclusive [inhibitor, partial curve] | 
15 | CC(CCc1ccccc1)NC(=O)COc1ccc(S(=O)(=O)N2CCOCC2)cc1[N+](=O)[O-] (stereo not drawn) | inconclusive [inhibitor, single point] | 
16 | C=CCNc1nc(SCC=C)nc2ccsc12 | inconclusive [inhibitor, single point] | 
17 | Cc1ccc(-c2csc(NC(=O)c3ccc4c(=O)n5c(nc4c3)CCCCC5)n2)cc1 | active: 10.3 µM | 
18 | COc1ccc(C(=O)N2CCN(c3ccc([N+](=O)[O-])c(-n4nc(C)cc4C)c3)CC2)cc1 | inactive | 
19 | O=C1C=C(NCCc2cc(Br)c(O)c(Br)c2)C(=O)c2ncccc21 | active: 1.16 µM | 
20 | Cc1ccc(NC(=O)c2nc[nH]c2C(=O)N2CCC(C)CC2)cc1 | inconclusive [inhibitor, single point] | 
21 | CC(c1ccc(N(C)C)cc1)c1ccnc2ccccc12 (stereo not drawn) | inconclusive [inhibitor, single point] | 
22 | Cc1ccc(NC(=O)C(c2ccccc2)N(C)C)cc1Cl (stereo not drawn) | inconclusive [inhibitor, full curve, poor fit] | 
23 | O=C(CN1CCN(C2CCCCC2)C(=O)C1=O)Nc1ccc(Cl)cc1 | inconclusive [inhibitor, partial curve] | 

Row | Structure (SMILES) | Potency | activity change, negative = growth inhibition
24 | CC(=O)c1ccc(NC(=S)N2CCN(c3ccccn3)CC2)cc1 | inconclusive [inhibitor, single point] | 
25 | COc1ccccc1CNC(=O)COC(=O)c1nccnc1N | inactive | 
26 | CC(C)CCN1C(=O)c2ccccc2CC1(C)C(=O)NC1CCCCC1 (stereo not drawn) | inconclusive [inhibitor, single point] | 
27 | CCN(CC)S(=O)(=O)c1cccc(-c2nnc(SCCOc3ccccc3C)o2)c1 | inconclusive [inhibitor, single point] | 
28 | O=C1c2cccc3cccc(c23)C(=O)N1OS(=O)(=O)c1ccc(Br)cc1 | inconclusive [inhibitor, partial curve, poor fit] | 
29 | CC(=O)NCCC(=O)N(C)CC1CCN(CCc2cccc(C(F)(F)F)c2)CC1 | inconclusive [inhibitor, single point] | 
30 | O=C(Nc1cccc(C(F)(F)F)c1)c1csc([C@@H]2C[C@H](O)[C@@H](CO)O2)n1 | inconclusive [inhibitor, full curve, poor fit] | 
31 | CCN(CC)c1ccc(S(=O)(=O)N2CCOCC2)cc1NC(=O)COC(=O)C1=COCCO1 | inconclusive [inhibitor, single point] | 
32 | Cc1nnc(NC(=O)COc2ccccc2)s1 | inactive | 
33 | CCC(C)[C@H]1CNC(=S)N1CCc1cc(C(F)(F)F)cc(C(F)(F)F)c1 (stereo partly drawn) | inconclusive [inhibitor, single point] | 
34 | O=C(CCCn1c(=O)[nH]c2ccsc2c1=O)NC1CCCCC1 | inactive | 
35 | COc1ccc(/C=N\NC(=O)COc2ccccc2Cl)cc1Cn1nc(C)cc1C | inconclusive [inhibitor, single point] | 
36 | COc1ccc(Cn2nnnc2C(c2ccccc2)N2CCN(c3ccccc3)CC2)cc1 (stereo not drawn) | inconclusive [inhibitor, single point] | 
37 | COc1ccc(-c2oc(=O)c3cc(OC)c(OC)cc3c2C#CCCO)cc1 | inconclusive [inhibitor, partial curve] | 
38 | O=C(c1cccc(F)c1)N1CCC2(CC1)CCN(c1ccccc1)CC2 | inconclusive [inhibitor, single point] | 
39 | COc1cccc(N2CCN(c3ncnc4c3[nH]c3ccc(F)cc34)CC2C)c1 (stereo not drawn) | active: 1.64 µM | 
40 | CCN(CC(=O)NC(=O)NCc1ccco1)Cc1nc2ccccc2c(=O)[nH]1 | active: 4.61 µM | 
41 | O=C1CN(CCN2CC(=O)NC(=O)C2)CC(=O)N1 | active: 7.94 µM | 
42 | CC1CN(c2ccc(NC(=S)Nc3ccc(N4CC(C)OC(C)C4)cc3)cc2)CC(C)O1 (stereo not drawn) | inconclusive [inhibitor, single point] | 
43 | Cc1cn([C@H]2C[C@H](O)[C@@H](CNCc3cc(Cl)ccc3OCc3ccc(Cl)cc3)O2)c(=O)[nH]c1=O | inconclusive [inhibitor, single point] | 
44 | CC(=S)/C=C1\Sc2ccccc2N1C | active: 14.6 µM | 
45 | O=S(=O)(c1ccccc1)c1nc(-c2ccccc2Cl)oc1NCCN1CCOCC1 | inconclusive [inhibitor, single point] | 
46 | O=C(NCC1CCCO1)c1sc2cc(Cl)ccc2c1Cl (stereo not drawn) | inactive | 

Row | Structure (SMILES) | Potency | activity change, negative = growth inhibition
47 | CCCN1CCN(C(=O)Cn2ncc3c4ccccc4n(Cc4cccc(Cl)c4)c3c2=O)CC1 | active: 13 µM | 
48 | CC(=C\c1ccccc1)/C=C1/SC(=S)N(C(C(=O)O)C(C)C)C1=O (stereo not drawn) | inactive | 
49 | N#Cc1c(NC(=O)c2ccc(Cn3cc(Br)cn3)o2)sc2c1CCCCC2 |  | inconclusive: -30.3% [inhibitor]
50 | CCOC(=O)c1c(C)nn(Cc2cccc(Cl)c2)c1N | inconclusive [inhibitor, single point] | 
51 | O=c1oc(Cc2ccccc2)nc2ccccc12 | inactive | 
52 | Fc1ccc(CSc2nnc(-c3cc4c(s3)-c3ccccc3CC4)o2)cc1 | inconclusive [inhibitor, single point] | 
53 | CCn1c(CNc2ccc(C)cc2C)nnc1SCC(=O)N1CCCc2ccccc21 | active: 10.3 µM | 
54 | CCOc1ccc(-n2nc3ccc(NC(=O)c4ccc(C)cc4C)cc3n2)cc1 |  | inconclusive: -25.5% [inhibitor]
55 | COc1ccccc1CC(=O)N1CCN(c2ccccn2)CC1 | inactive | 
56 | CN1CCN(CCCNC(=O)CCN2C(=O)COc3ccccc32)CC1 | inactive | 
57 | Cc1ccc(NC(=O)C2CCCN(c3ncnc4c3nc3n4CCCCC3)C2)cc1Cl (stereo not drawn) | inconclusive [inhibitor, single point] | 
58 | O=C(CN1C(=O)COc2ccccc21)NCCN1CCC(Cc2ccccc2)CC1 | inconclusive [inhibitor, partial curve, poor fit] | 
59 | CCc1nnc(NC(=O)CSc2nc(-c3ccc(F)cc3)cc(-c3ccccc3)c2C#N)s1 | inconclusive [inhibitor, single point] | 
60 | Cc1cccc(N(C)C(=O)c2cc3c(=O)oc4ccc(C)cc4c3s2)c1 | inactive | 
61 | O=C(Nc1c(C(=O)N2CCN(c3ccccc3)CC2)oc2ccccc12)c1ccccc1F | inconclusive [inhibitor, single point] | 
62 | Cc1cc(/C=C(/C#N)c2nc3ccccc3[nH]2)c(C)n1-c1cc(C(=O)O)cc(C(=O)O)c1 | inactive | 
63 | COc1ccccc1C(=O)Nc1ccc(C(=O)/C=C/c2cccs2)cc1 | inconclusive [inhibitor, partial curve, poor fit] | 
64 | CCOC(=O)C1(C)CCN1C(=O)c1cccnc1Oc1ccccc1 (stereo not drawn) |  | inconclusive: -35% [inhibitor]
65 | COCCNC(=O)c1[nH]c(C(F)(F)F)nc1-c1ccccc1 | inactive | 
66 | COC(=O)c1ccc(C(=O)OC)c(NC(=O)c2cnn3c(C(F)F)cc(-c4ccc(C)cc4)nc23)c1 | inactive | 
67 | COc1ccc(Cl)cc1NC(=O)CC(C)c1ccccc1 (stereo not drawn) | inconclusive [inhibitor, single point] | 
68 | COc1ccc(Cl)cc1C(=O)NCCc1ccc(S(=O)(=O)NC(=O)NC2CCCCC2)cc1 | inconclusive [inhibitor, single point] | 
